# According to the supplement of paper PMC8728848:
# Some of the results follow.
# B1: Tap1 (Sordaria macrospora), Q50IV4 (protein)
# chain: MSHHHHHHHHYTLHLRLINDTSDTLTLVEQTSWWGKNTIWSQVRSTGVHVLSMAASGSSGMLRFQTSKGDFFAVAVGVHNYKRWCDVLVDTADEAPLTKLHPKYYDDKDAKYQALWAQASEFEAKSKSGKTVRIKFYQADGNVLRATVEYL
# Legend:
# Assay in all cases: glycan array binding signal (z-score within array); higher = stronger binding
# Conditions in all cases: glycan notation: IUPAC condensed, linker removed
# Fuc(a1-2)Gal = molecular target: Fuc(a1-2)Gal
# How it was run: (§1)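 Glycan array data came from 3228 arrays in the Consortium for Functional Glycomics database, and only arrays with an available protein sequence were kept. Glycan names were put into IUPAC-condensed notation, and columns mapping to the same glycan were averaged. The binding signal is a within-array Z-score, averaged across arrays of one protein sequence run at different concentrations or buffers and across linkers. A negative Z-score can be read as non-binding.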
# Fuc(a1-2)Gal(b1-3)GalNAc = molecular target: Fuc(a1-2)Gal(b1-3)GalNAc
# How it was run: as §1
# [1] = molecular target: Fuc(a1-2)Gal(b1-3)GalNAc(a1-3)[Fuc(a1-2)]Gal(b1-4)Glc
# How it was run: as §1
# [2] = molecular target: Fuc(a1-2)Gal(b1-3)GalNAc(a1-3)[Fuc(a1-2)]Gal(b1-4)GlcNAc
# How it was run: as §1
# [3] = molecular target: Fuc(a1-2)Gal(b1-3)GalNAc(b1-3)Gal
# How it was run: as §1
# [4] = molecular target: Fuc(a1-2)Gal(b1-3)GalNAc(b1-3)Gal(a1-4)Gal(b1-4)Glc
# How it was run: as §1
# [5] = molecular target: Fuc(a1-2)Gal(b1-3)GalNAc(b1-4)[Neu5Ac(a2-3)]Gal(b1-4)Glc
# How it was run: as §1
# Fuc(a1-2)Gal(b1-3)GlcNAc = molecular target: Fuc(a1-2)Gal(b1-3)GlcNAc
# How it was run: as §1
# [6] = molecular target: Fuc(a1-2)Gal(b1-3)GlcNAc(b1-2)Man(a1-3)[Fuc(a1-2)Gal(b1-3)GlcNAc(b1-2)Man(a1-6)]Man(b1-4)GlcNAc(b1-4)GlcNAc
# How it was run: as §1
# [7] = molecular target: Fuc(a1-2)Gal(b1-3)GlcNAc(b1-2)Man(a1-3)[Fuc(a1-2)Gal(b1-3)GlcNAc(b1-2)Man(a1-6)]Man(b1-4)GlcNAc(b1-4)[Fuc(a1-6)]GlcNAc
# How it was run: as §1
# [8] = molecular target: Fuc(a1-2)Gal(b1-3)GlcNAc(b1-3)Gal(b1-4)Glc
# How it was run: as §1
# [9] = molecular target: Fuc(a1-2)Gal(b1-3)GlcNAc(b1-3)GalNAc
# How it was run: as §1
# [10] = molecular target: Fuc(a1-2)Gal(b1-3)GlcNAc(b1-3)[Fuc(a1-3)[Gal(b1-4)]GlcNAc(b1-6)]Gal(b1-4)Glc
# How it was run: as §1
# [11] = molecular target: Fuc(a1-2)Gal(b1-3)GlcNAc(b1-3)[Gal(b1-4)GlcNAc(b1-6)]Gal(b1-4)Glc
# How it was run: as §1
# [12] = molecular target: Fuc(a1-2)Gal(b1-3)[Fuc(a1-4)]GlcNAc
# How it was run: as §1
# [13] = molecular target: Fuc(a1-2)Gal(b1-3)[Fuc(a1-4)]GlcNAc(b1-2)Man(a1-3)[Fuc(a1-2)Gal(b1-3)[Fuc(a1-4)]GlcNAc(b1-2)Man(a1-6)]Man(b1-4)GlcNAc(b1-4)GlcNAc
# How it was run: as §1
# [14] = molecular target: Fuc(a1-2)Gal(b1-3)[Fuc(a1-4)]GlcNAc(b1-3)[Fuc(a1-3)[Gal(b1-4)]GlcNAc(b1-6)]Gal(b1-4)Glc
# How it was run: as §1
# [15] = molecular target: Fuc(a1-2)Gal(b1-3)[Fuc(a1-4)]GlcNAc(b1-3)[Gal(b1-4)GlcNAc(b1-6)]Gal(b1-4)Glc
# How it was run: as §1
# Fuc(a1-2)Gal(b1-4)Glc = molecular target: Fuc(a1-2)Gal(b1-4)Glc
# How it was run: as §1
# Fuc(a1-2)Gal(b1-4)Glc6S = molecular target: Fuc(a1-2)Gal(b1-4)Glc6S
# How it was run: as §1
# Fuc(a1-2)Gal(b1-4)GlcNAc = molecular target: Fuc(a1-2)Gal(b1-4)GlcNAc
# How it was run: as §1
# [16] = molecular target: Fuc(a1-2)Gal(b1-4)GlcNAc(b1-2)Man(a1-3)[Fuc(a1-2)Gal(b1-4)GlcNAc(b1-2)Man(a1-6)]Man(b1-4)GlcNAc(b1-4)GlcNAc
# How it was run: as §1
# [17] = molecular target: Fuc(a1-2)Gal(b1-4)GlcNAc(b1-2)Man(a1-3)[Fuc(a1-2)Gal(b1-4)GlcNAc(b1-2)Man(a1-6)]Man(b1-4)GlcNAc(b1-4)[Fuc(a1-6)]GlcNAc
# How it was run: as §1
# [18] = molecular target: Fuc(a1-2)Gal(b1-4)GlcNAc(b1-2)[Fuc(a1-2)Gal(b1-4)GlcNAc(b1-4)]Man(a1-3)[Fuc(a1-2)Gal(b1-4)GlcNAc(b1-2)Man(a1-6)]Man(b1-4)GlcNAc(b1-4)GlcNAc
# How it was run: as §1
# [19] = molecular target: Fuc(a1-2)Gal(b1-4)GlcNAc(b1-3)Gal(b1-4)GlcNAc
# How it was run: as §1
# [20] = molecular target: Fuc(a1-2)Gal(b1-4)GlcNAc(b1-3)Gal(b1-4)GlcNAc(b1-3)Gal(b1-4)GlcNAc
# How it was run: as §1
# [21] = molecular target: Fuc(a1-2)Gal(b1-4)GlcNAc(b1-3)GalNAc
# How it was run: as §1
# [22] = molecular target: Fuc(a1-2)Gal(b1-4)GlcNAc6S
# How it was run: as §1
# [23] = molecular target: Fuc(a1-2)Gal(b1-4)[Fuc(a1-3)]GlcNAc
# How it was run: as §1
# [24] = molecular target: Fuc(a1-2)Gal(b1-4)[Fuc(a1-3)]GlcNAc(b1-2)Man(a1-3)[Fuc(a1-2)Gal(b1-4)[Fuc(a1-3)]GlcNAc(b1-2)Man(a1-6)]Man(b1-4)GlcNAc(b1-4)GlcNAc
# How it was run: as §1
# [25] = molecular target: Fuc(a1-2)Gal(b1-4)[Fuc(a1-3)]GlcNAc(b1-2)[Fuc(a1-2)Gal(b1-4)[Fuc(a1-3)]GlcNAc(b1-4)]Man(a1-3)[Fuc(a1-2)Gal(b1-4)[Fuc(a1-3)]GlcNAc(b1-2)Man(a1-6)]Man(b1-4)GlcNAc(b1-4)GlcNAc
# How it was run: as §1
# [26] = molecular target: Fuc(a1-2)Gal(b1-4)[Fuc(a1-3)]GlcNAc(b1-3)Gal(b1-4)[Fuc(a1-3)]GlcNAc
# How it was run: as §1
# [27] = molecular target: Fuc(a1-2)Gal(b1-4)[Fuc(a1-3)]GlcNAc(b1-3)Gal(b1-4)[Fuc(a1-3)]GlcNAc(b1-3)Gal(b1-4)[Fuc(a1-3)]GlcNAc
# How it was run: as §1
# [28] = molecular target: Fuc(a1-2)Gal(b1-4)[Fuc(a1-3)]GlcNAc(b1-3)GalNAc
# How it was run: as §1
# Fuc(a1-2)Gal6S(b1-4)Glc = molecular target: Fuc(a1-2)Gal6S(b1-4)Glc
# How it was run: as §1
# [29] = molecular target: Fuc(a1-2)Gal6S(b1-4)Glc6S
# How it was run: as §1
# [30] = molecular target: Fuc(a1-2)Gal6S(b1-4)GlcNAc
# How it was run: as §1
# Fuc(a1-2)[Gal(a1-3)]Gal = molecular target: Fuc(a1-2)[Gal(a1-3)]Gal
# How it was run: as §1
# [31] = molecular target: Fuc(a1-2)[Gal(a1-3)]Gal(b1-3)GlcNAc
# How it was run: as §1
# [32] = molecular target: Fuc(a1-2)[Gal(a1-3)]Gal(b1-3)GlcNAc(b1-2)Man(a1-3)[Fuc(a1-2)[Gal(a1-3)]Gal(b1-3)GlcNAc(b1-2)Man(a1-6)]Man(b1-4)GlcNAc(b1-4)GlcNAc
# How it was run: as §1
# [33] = molecular target: Fuc(a1-2)[Gal(a1-3)]Gal(b1-3)GlcNAc(b1-3)GalNAc
# How it was run: as §1
# [34] = molecular target: Fuc(a1-2)[Gal(a1-3)]Gal(b1-4)Glc
# How it was run: as §1
# [35] = molecular target: Fuc(a1-2)[Gal(a1-3)]Gal(b1-4)GlcNAc
# How it was run: as §1
# [36] = molecular target: Fuc(a1-2)[Gal(a1-3)]Gal(b1-4)GlcNAc(b1-2)Man(a1-3)[Fuc(a1-2)[Gal(a1-3)]Gal(b1-4)GlcNAc(b1-2)Man(a1-6)]Man(b1-4)GlcNAc(b1-4)GlcNAc
# How it was run: as §1
# [37] = molecular target: Fuc(a1-2)[Gal(a1-3)]Gal(b1-4)GlcNAc(b1-2)Man(a1-3)[Fuc(a1-2)[Gal(a1-3)]Gal(b1-4)GlcNAc(b1-2)Man(a1-6)]Man(b1-4)GlcNAc(b1-4)[Fuc(a1-6)]GlcNAc
# How it was run: as §1
binder,measurement,setting,value
B1,glycan array binding signal (z-score),Fuc(a1-2)Gal,-0.239
same,glycan array binding signal (z-score),Fuc(a1-2)Gal(b1-3)GalNAc,2.96
same,glycan array binding signal (z-score),[1],-0.201
same,glycan array binding signal (z-score),[2],-0.05
same,glycan array binding signal (z-score),[3],-0.225
same,glycan array binding signal (z-score),[4],-0.242
same,glycan array binding signal (z-score),[5],-0.238
same,glycan array binding signal (z-score),Fuc(a1-2)Gal(b1-3)GlcNAc,-0.217
same,glycan array binding signal (z-score),[6],-0.216
same,glycan array binding signal (z-score),[7],-0.214
same,glycan array binding signal (z-score),[8],-0.228
same,glycan array binding signal (z-score),[9],-0.226
same,glycan array binding signal (z-score),[10],-0.237
same,glycan array binding signal (z-score),[11],-0.239
same,glycan array binding signal (z-score),[12],-0.245
same,glycan array binding signal (z-score),[13],-0.135
same,glycan array binding signal (z-score),[14],-0.253
same,glycan array binding signal (z-score),[15],-0.228
same,glycan array binding signal (z-score),Fuc(a1-2)Gal(b1-4)Glc,-0.197
same,glycan array binding signal (z-score),Fuc(a1-2)Gal(b1-4)Glc6S,-0.216
same,glycan array binding signal (z-score),Fuc(a1-2)Gal(b1-4)GlcNAc,-0.234
same,glycan array binding signal (z-score),[16],-0.207
same,glycan array binding signal (z-score),[17],-0.24
same,glycan array binding signal (z-score),[18],-0.23
same,glycan array binding signal (z-score),[19],-0.245
same,glycan array binding signal (z-score),[20],-0.223
same,glycan array binding signal (z-score),[21],0.239
same,glycan array binding signal (z-score),[22],-0.228
same,glycan array binding signal (z-score),[23],-0.237
same,glycan array binding signal (z-score),[24],-0.035
same,glycan array binding signal (z-score),[25],-0.112
same,glycan array binding signal (z-score),[26],-0.232
same,glycan array binding signal (z-score),[27],-0.238
same,glycan array binding signal (z-score),[28],-0.028
same,glycan array binding signal (z-score),Fuc(a1-2)Gal6S(b1-4)Glc,-0.234
same,glycan array binding signal (z-score),[29],-0.192
same,glycan array binding signal (z-score),[30],-0.222
same,glycan array binding signal (z-score),Fuc(a1-2)[Gal(a1-3)]Gal,-0.241
same,glycan array binding signal (z-score),[31],-0.215
same,glycan array binding signal (z-score),[32],-0.231
same,glycan array binding signal (z-score),[33],-0.19
same,glycan array binding signal (z-score),[34],-0.234
same,glycan array binding signal (z-score),[35],-0.22
same,glycan array binding signal (z-score),[36],-0.244
same,glycan array binding signal (z-score),[37],-0.228
